PubChem BioAssay (NCI)
Values joined by “and” are separate entries in the source; they are usually repeats but may differ in a detail not shown here. Equal values may be shown once.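 Values below derive from 48-hour exposures of cells grown in 96-well plates, with endpoints linearly interpolated between the two concentrations bracketing the appropriate inhibition level. At the GI50, growth is halved. The concentration for full growth arrest is given as TGI.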

These compounds were tested on NCI-H322M lung (assay: NCI-60 cell line screen, 48 h).
Work on `CCSc1oc(-c2ccccc2)nc1[P+](c1ccccc1)(c1ccccc1)c1ccccc1` yielded a GI50 of 0.346 µM and a TGI of 2.58 µM.
For `Cc1cc(S(=O)(=O)Nc2nnc3c(C(F)(F)F)cc(Cl)cn23)c(S)cc1Cl`, the TGI was over 100 µM.
Work on `O=C(N/N=C(/c1nc2ccc(Cl)cc2[nH]c1=O)C(O)c1ccc(Cl)cc1Cl)c1ccncc1` (configuration not stated) yielded a TGI of over 100 µM.
Compound `N#Cc1cccc(NC(=O)c2ccc(C(=O)O)c(C(=O)c3ccc(C(=O)O)c(C(=O)Nc4cccc(C#N)c4)c3)c2)c1` has a TGI of over 100 µM.
`Cn1c2c([N+](=O)[O-])[se]nc2c(=O)n1-c1ccc([N+](=O)[O-])cc1` was tested, and the TGI was 12.2 µM.
With `O=C(c1cc(O)ccc1O)c1ccccc1C(Cl)(Cl)Cl` the TGI was over 100 µM.
For `C/C(=C/CO[Si](C)(C)C(C)(C)C)C(=O)N(C)c1ccccc1I`, the TGI was 31.1 µM.
`COc1ccc(OC)c(-c2nc3sccn3c2/C=C2/C(=O)Nc3ccc(Cl)cc32)c1` was tested, and the GI50 was 39.5 µM and the TGI was over 100 µM.
For `O=C(/C=C/c1ccc(C(F)(F)F)cc1)c1ccc(Nc2nc(NCCO)nc(NCCO)n2)cc1`, the GI50 was 2.33 µM and the TGI was 11.3 µM.
Compound `CC(=O)/C=C/C=C(\C)CC/C=C(\C)CC(C)C` has a TGI of over 100 µM.
For `O=C(O)C(CCc1ccccn1)c1ccccc1` (configuration not stated), the TGI was over 100 µM.
Compound `Cc1cc(Cc2c(F)c(F)c(Cc3cc(C)no3)c(F)c2F)on1` has a TGI of over 100 µM.
`CC1(C)CCC[C@]23C(=O)O[C@](O)(C(=O)C4=C[C@@](C)(/C=C/CCCc5ccc6ccc7cccc8ccc5c6c78)CC[C@@]42O)[C@@H]13` showed a GI50 of 0.212 µM and a TGI of 0.489 µM.
Work on `N/C(=N\NS(=O)(=O)c1ccccc1)Oc1ccc(Cl)cc1` yielded a TGI of over 100 µM.
For `CCOc1ccc2[nH]c3c(C)c4cc[n+](C)cc4c(C)c3c2c1`, the GI50 was 1.48 µM and 3.48 µM and the TGI was 93.6 µM and > 100 µM.
`O=P(Oc1ccc(Cl)cc1)(Oc1ccc(Cl)cc1)N1CC1` gave a TGI of over 10 µM.
With `CCCS(=O)(=O)Nc1ccc(F)c(C(=O)c2c[nH]c3ncc(-c4ccc(Cl)cc4)cc23)c1F` the GI50 was 4.9 µM and 3.76 µM and the TGI was 18.4 µM and > 10 µM.
`Cc1ccc(S(=O)(=O)N(/N=C(\N)Oc2ccc(Cl)cc2)C(=N)Oc2ccc(Cl)cc2)cc1` showed a TGI of over 100 µM.
With `O=[N+]([O-])c1cccc([N+](=O)[O-])c1S(=O)(=O)c1ccccc1` the TGI was 34.1 µM.
Compound `CC(CN=C(CC(=O)c1ccc(Br)cc1)c1ccccc1)N=C(CC(=O)c1ccc(Br)cc1)c1ccccc1` (configuration not stated) has a GI50 of 6.23 µM and a TGI of over 100 µM.
With `C/C(=C\c1ccc(Cl)cc1)C(C)(C)C(=O)O` the TGI was over 100 µM.
`O=C(C1=C(C(=O)c2ccccc2)SC2(S1)C(C(=O)c1ccccc1)=C(C(=O)c1ccccc1)Sc1c2ssc1=O)c1ccccc1` showed a TGI of over 100 µM.
Compound `O=C1c2ccccc2C(=O)c2c(NCCCNCCO)ccc(NCCCNCCO)c21` has a TGI of 23.9 µM.
Work on `Cl.[Pt].[c-]1ccccc1-c1ccccn1.c1ccc(P(c2ccccc2)C([PH+](c2ccccc2)c2ccccc2)[PH+](c2ccccc2)c2ccccc2)cc1` yielded a GI50 of 2.24 µM and a TGI of 21.1 µM.
`CCOC(=O)c1cc2c(OC(C)=O)ccc(OC(C)=O)c2s1` was tested, and the TGI was 27.5 µM.
Compound `CC[C@]12C=CCN3CCC4(c5cc(N=Nc6ccccc6)c(OC)cc5N(C)[C@H]4[C@@](O)(C(=O)OC)[C@@H]1OC(C)=O)[C@@H]32` (some centres not stated) has a TGI of 35.9 µM.
For `CN(C)CCCNc1nn2c(=O)c3ccccc3nc2c2ccccc12`, the GI50 was 14.9 µM and the TGI was over 100 µM.
For `O=C(Nn1c(-c2ccccc2)nc2ccccc2c1=O)c1ccccn1`, the TGI was over 100 µM.
Compound `COc1cc(C2C3=C(CCC3=O)Oc3cc4c(cc32)OCO4)cc(OC)c1OC` (configuration not stated) has a TGI of 39.8 µM.
For `COc1ccc(/C=C/c2cc(O)cc(OC)c2)cc1`, the TGI was over 100 µM.
With `COc1ccc(/C(C)=C(\c2ccc(Cl)cc2)c2ccc(OCCN3CCCC3)cc2)cc1` the GI50 was 3.5 µM and the TGI was 7.56 µM.
`COc1ccc2cccc(C(=O)c3ccc(C)c4c3CCC4)c2c1` was tested, and the TGI was over 100 µM.
In the case of `CC(C)C[C@H](NC(=O)[C@H](CCc1ccccc1)NC(=O)CN1CCOCC1)C(=O)N[C@@H](Cc1ccccc1)C(=O)N[C@@H](CC(C)C)C(=O)[C@@]1(C)CO1`, the GI50 is reported as 0.0664 µM and the TGI is reported as 0.48 µM.
`CCCCCc1cc2c(cc1O)CC[C@@H]1[C@@H]2CC[C@]2(C)[C@@H](O)CC[C@@H]12` gave a TGI of 26.8 µM.
Compound `CC1(C)COC(c2cccc(C3=NC(C)(C)CO3)c2Br)=N1` has a TGI of over 100 µM.
Compound `CC(=O)O[C@H]1C#C/C=C\C#CC[C@@H]2C(=O)N(C(=O)OC(C)(C)C)[C@@H]12` has a TGI of over 100 µM.
`COC(=O)c1sc(=S)sc1SCc1ccccc1CSc1sc(=S)sc1C(=O)OC` showed a TGI of over 100 µM.
`CC1=C(C(=O)OCCc2ccc([N+](=O)[O-])cc2)C(c2ccccc2[N+](=O)[O-])C(C(=O)OC(C)C)=C(C)N1` (configuration not stated) showed a TGI of over 100 µM.
`Cn1nc(C(F)(F)F)c(-c2ccc(Cl)c(C(F)(F)F)c2)c1-c1ccc(OCc2ccc(Cl)cc2)cc1O` showed a GI50 of 1.85 µM and a TGI of 7.46 µM.
`Nc1nc(Cl)cc(N=Nc2ccccc2)n1` showed a TGI of over 100 µM.
In the case of `C(=N\Nc1nnc2c(n1)[nH]c1ccccc12)/c1cccnc1`, the TGI is reported as over 100 µM.
For `C=C(CN1CCN(c2ccccc2OC)CC1)c1ccc(C(=O)Nc2ccccc2N)cc1`, the GI50 was 5.66 µM and the TGI was 20.3 µM.
For `COc1ccc(C(=O)c2cc(OC)c(OC)c(OC)c2)cc1OC(C)=O`, the GI50 was 0.0936 µM and the TGI was over 100 µM.
Compound `O=S1(=O)NNC(=NCc2ccc(Cl)cc2)c2ccccc21` has a TGI of over 100 µM.
In the case of `COc1cc(-c2cc(-c3ccc(N(C)C)cc3)nc(N3CCOCC3)c2C#N)cc(OC)c1OC`, the GI50 is reported as 5.41 µM and the TGI is reported as over 100 µM.
`Cc1nnc2cc(C(=O)O)c3ccccc3n2c1=O` showed a TGI of over 10 µM.
Compound `COC(=O)c1ccc(-c2nc(C#N)c(N)o2)cc1` has a TGI of over 100 µM.
Work on `CN(CCc1ccc(Cl)c(Cl)c1)[C@H]1CCCC[C@H]1N1CCCC1` yielded a TGI of over 100 µM.
`CC(C)(C)N=C1CC(C)(C)c2ccccc2C(=Nc2ccccc2)S1` showed a TGI of over 100 µM.
For `O=C(NCc1cccnc1)/C(=C\c1ccc(Br)cc1)S(=O)(=O)c1ccccc1`, the GI50 was 1.29 µM and the TGI was 2.62 µM.
For `NC(N)=N/N=C/c1c(-c2ccc([N+](=O)[O-])cc2)nc2sccn12`, the TGI was 3.13 µM.
Compound `CCN(CC)CCN1C(=O)c2c(c(C)c3c(oc4cc(O)ccc43)c2C)C1=O` has a GI50 of 1.64 µM and a TGI of 3.03 µM.
In the case of `NCCCCCS(=O)(=O)O`, the TGI is reported as over 100 µM.
Compound `COc1ccc(-c2ccc(/C=C/C(=O)NO)cc2)cc1` has a GI50 of 1.83 µM and a TGI of 19 µM.
With `NC(=O)CCC(NC(=O)OCc1ccccc1)C(=O)OCC(=O)c1ccccc1` (configuration not stated) the GI50 was over 100 µM and the TGI was over 100 µM.
`COP(=O)(OC)C(N)CCSC` (configuration not stated) was tested, and the TGI was over 100 µM.
For `COC(=O)/C=C/C(=O)C1C(C(=O)OC)C2(C(=O)OC)CCC1(C(=O)OC)N2` (configuration not stated), the TGI was over 100 µM.
For `CC(C)[C@@H]1C=C(c2ccccc2)c2ccccc2C1C(C#N)(C#N)C(C)C` (some centres not stated), the TGI was over 100 µM.
`CC(C)CCC[C@@H](C)[C@H]1CC[C@H]2[C@@H]3CC=C4C[C@@H](OC(=O)c5cccc6c(=O)c7ccccc7[nH]c56)CC[C@]4(C)[C@H]3CC[C@]12C` gave a TGI of over 75 µM.
In the case of `CCCn1c(C23CC4CC(CC(C4)C2)C3)nc2ccc(Cl)cc2c1=O`, the TGI is reported as over 100 µM.
`CC(=O)NC1C(CO)O[C@@H]2OC(C)(C)O[C@H]12` (some centres not stated) was tested, and the TGI was over 100 µM.
`CCC1(CC)C(=O)CC[C@@]2(C)C1=CC[C@H]1[C@@H]3CC[C@H](O)[C@@]3(C)CC[C@@H]12` gave a TGI of over 100 µM.
For `COC(=O)C[CH](C(=O)OC)[Ge]([CH3])([CH3])[S]c1ccccc1` (configuration not stated), the GI50 was over 100 µM and the TGI was over 100 µM.
With `CC(=O)NS(=O)(=O)c1ccc(NC(=O)COC(=O)c2cccc3c(=O)c4ccccc4[nH]c23)cc1` the TGI was over 100 µM.
For `C=CCC(CNC(=O)OCc1ccccc1)O[Si](C)(C)C(C)(C)C` (configuration not stated), the TGI was over 100 µM.
Compound `CC1=CC(O)C(O)C2(C)C1CC1OC(=O)C(O)C3C(C)C(O)C4(O)OCC13C42` (configuration not stated) has a TGI of 87.7 µM.
`O=C(O)/C=C(/CC(=O)O)C(=O)O` was tested, and the TGI was 64.8 µM.
